Data as given in PubChem BioAssay AID1347073 (National Center for Advancing Translational Sciences (NCATS), 2019).
The whole screen tested about 45,000 compounds, of which about 200 (0.44%) were called active. Another 7% or so got no clear call; they are omitted. The call rests on the fitted dose curve; in most records, active means well fitted activation curve with a large enough effect; inconclusive means small, poorly fitted or top-dose-only effect; inactive means no such curve, though single readings can be large or run the other way. The list shows a part of the results.

Assay: qHTS of TDP-43 Inhibitors: NCGC Sytravon Library Screen; further: 0% is about no effect; nearly all actives have a fitted effect of over 55% in size
Conditions: yeast TDP-43 toxicity rescue, BacTiter-Glo growth, 24 h; series mostly up to 46.1 µM; growth rescue (activation): at the top concentration
How it was run: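 TDP-43-expressing yeast, pregrown in raffinose, seeded at OD600 0.02 in galactose medium with compound for 24 hr at 30 deg C. Growth read by BacTiter-Glo luminescence, so rescue of toxicity appears as activation.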

| Compound | growth rescue (activation) |
| --- | --- |
| CCOc1ccc(NC(=O)Cn2sc3nc(C)cc(C)c3c2=O)cc1 | inactive: 19.6% |
| Cc1ccccc1NC(=O)Cn1nnc2sc3c(c2c1=O)CC(C)(C)OC3 | inactive: 13.3% |
| CCN(CC(=O)NCc1cccs1)C(=O)c1ccc(S(=O)(=O)N(C)c2ccccc2)cc1 | inactive: -4.68% |
| CCOC(=O)c1c(NC(=O)CSc2nncs2)sc(C)c1-c1ccccc1 | inactive: 18.9% |
| Nc1c(C(=O)NCCc2ccccc2)sc2nc(N3CCOCC3)c3c(c12)CCCC3 | inactive: 23.8% |
| CC(C)n1nnnc1SCC(=O)Nc1ccccc1F | inactive: 11.9% |
| FC(F)Oc1ccc(N=C2SCC3CCCCN23)cc1 (stereo not drawn) | inactive: 7.69% |
| CC(=O)c1cccc(CN2CCC(C(=O)Nc3ccc(-c4cccc(C)c4)cc3)CC2)c1 | inactive: 19% |
| Cc1ccccc1NC(=O)CCOc1ccccc1 | inactive: 31.2% |
| O=C(Cc1c[nH]c2ccccc12)Nc1ccccc1N1CCOCC1 | inactive: -3.86% |
| CCCC(O)(CCC)C(=O)NN(C(=O)OC)c1ccccc1 | inactive: 7.42% |
| Clc1ccc(CNC2CCN(Cc3ccccc3)CC2)cc1 | inactive: 2.69% |
| CCOC(=O)C1(C)CCN1C(=O)CSc1ccccc1 (stereo not drawn) | inactive: 6.77% |
| COc1ccc(C2c3ccc(O)cc3Oc3ncn4nc(-c5ccccn5)nc4c32)cc1OC (stereo not drawn) | inactive: 22.1% |
| Cc1ccc(-c2nc(C)sc2CC(=O)NCc2ccco2)cc1 | inactive: 14.5% |
| O=C(NCCSc1ccccc1)c1ccccc1Cl | inactive: 27.8% |
| COc1ccccc1N1C[C@@H]2C[C@@H](c3ccco3)N3CCC[C@@]23C1=O | inactive: 0.361% |
| COc1ccc(C(=O)OCC(=O)NCc2ccco2)cc1OC | inactive: 2.24% |
| Cc1ccc(-c2nc(S(=O)(=O)c3ccccc3)c(SCC(=O)NCC3CCCO3)o2)cc1 (stereo not drawn) | inactive: 10.5% |
| O=C(CN(Cc1ccc(Cl)cc1)C(=O)CNS(=O)(=O)c1ccc(F)cc1)NCC1CCCO1 (stereo not drawn) | inactive: -0.78% |
| Cc1ccccc1NC(=O)CC1SC(=Nc2ccc(O)cc2)NC1=O (stereo not drawn) | inactive: 8.67% |
| CC(=O)Nc1ccc(N(CC(=O)NCC2CCCO2)C(=O)CCC(=O)Nc2cc(C)on2)cc1 (stereo not drawn) | inactive: -9.3% |

| Compound | growth rescue (activation) |
| --- | --- |
| Cc1cc(C)cc(NC(=S)Nc2cccc3cnccc23)c1 | inactive: 15.1% |
| COc1ccc(-c2csc(NC(=O)CSc3n[nH]c(C)n3)n2)cc1 | inactive: -15% |
| COC(=O)c1cc(NC(=O)CSc2nnc(N)s2)ccc1Cl | inactive: 7.4% |
| COCCCN1C(=O)C(=O)/C(=C(/O)c2ccc(C)cc2)C1/C=C/c1ccccc1 (stereo not drawn) | inactive: -6.76% |
| CC(=O)Nc1ccc(S(=O)(=O)NCc2ccncc2)cc1 | inactive: -4.5% |
| Cc1ccc(/C(O)=C2/C(=O)C(=O)N(CC(=O)O)C2c2ccc([N+](=O)[O-])cc2)cc1 (stereo not drawn) | inactive: -6.54% |
| Nn1c(Cc2ccccc2F)nnc1SCC(=O)Nc1cccc(S(=O)(=O)NC2=NCCCCC2)c1 | inactive: -2.21% |
| Cc1ccc(-c2noc(-c3nnn(CC(=O)Nc4cccc(C(F)(F)F)c4)c3N)n2)cc1 | inactive: 1.87% |
| CC(C)CNC(=O)C1(C)CCCCCN1C(=O)c1cc2ccccc2s1 (stereo not drawn) | inactive: 29.8% |
| COc1cc2c(cc1NC(=S)Nc1ccccc1C)oc1ccccc12 | inactive: 25.1% |
| O=C(O)CCC(=O)Nc1nc2nccc(-c3ccccc3)n2n1 | inactive: 0.69% |
| Cc1ccc(S(=O)(=O)Nc2ccc3nc(-c4cccn4C)[nH]c3c2)cc1 | inactive: 32.7% |
| O=[N+]([O-])c1cccc(/C([O-])=C(/C(=S)Nc2ccccc2)[n+]2ccccc2)c1 | inactive: -8.49% |
| CCc1ccc(CN2CCC(n3nccc3NC(=O)Cc3ccccc3)CC2)o1 | inactive: 29.2% |
| COC(=O)C1CSc2[nH]c(=O)sc2C1c1ccc(OC)c(OC)c1 (stereo not drawn) | inactive: 2.35% |
| COc1ccc(N/C=C\C(=O)c2ccc(C)cc2)cc1OC | inactive: -2.39% |
| O=C(Nc1cccc(-c2nc3ccccc3[nH]2)c1)c1c(F)cccc1F | inactive: -7.22% |
| O=C(NN=C1CCCC1)c1cc(-c2ccccc2)n[nH]1 | inactive: -6.55% |
| O=C(Cn1cc(S(=O)(=O)N2CCN(c3ccccc3F)CC2)c2ccccc2c1=O)NCCCN1CCCCCC1 | inactive: 2.48% |
| CC1CN(C(=O)COC(=O)c2c(Cl)cccc2Cl)CC(C)O1 (stereo not drawn) | inactive: 1.51% |
| CC(=O)Nc1ccc(C(=O)N2CCCCC2c2cc(C(=O)Nc3ccccc3Cl)no2)cc1 (stereo not drawn) | inactive: 11% |
| Cc1ccc(NC(=S)NNS(=O)(=O)c2ccc3ccccc3c2)cc1Cl | inactive: 19.7% |

| Compound | growth rescue (activation) |
| --- | --- |
| COc1ccc(NC(=O)c2ccc3nc(-c4ccccc4)c(-c4ccccc4)nc3c2)c(OC)c1 | inactive: -2.8% |
| Cc1ccc(S(=O)(=O)NC(=O)Nc2ccc(F)c(F)c2)cc1 | inactive: 12.2% |
| COC(=O)c1cc(C(=O)c2cc(Br)ccc2O)coc1=N | inactive: 9.88% |
| CCOC(=O)C1CCN(C(=O)NS(=O)(=O)c2ccc(C)cc2)CC1 | inactive: 8.69% |
| CCOc1cc(NC(=O)c2cccs2)c(OCC)cc1NC(=O)CCC(=O)NCCN1CCOCC1 | inactive: 13.6% |
| Cc1[nH]c2ccccc2c1/C=N/NC(=O)Nc1ccccc1 | inactive: 13.8% |
| CN(Cc1ccccc1)S(=O)(=O)c1ccc(Cl)c(C(=O)N2CCC(C(N)=O)CC2)c1 | inactive: 0.075% |
| CCCC(=O)N1CCC1(C)C(=O)NCc1ccccc1SC (stereo not drawn) | inactive: -0.94% |
| COC(C(=O)NC1CC1)c1ccccc1 (stereo not drawn) | inactive: 2.63% |
| COCCNC(=O)c1ccccc1NC(=O)Cc1ccccc1 | inactive: -16.4% |
| O=C(C[n+]1cc(-c2ccc(Cl)c(Cl)c2)n2c1CCC2)N1c2ccccc2Sc2ccccc21 | inactive: -10% |
| C/C=C/c1ccc(OCCCCN2CCN(CC)CC2)c(OC)c1 | inactive: -4.72% |
| O=C(NCc1ccc(F)cc1)C(c1ccc(F)cc1)N(C(=O)c1csnn1)C1CC1 (stereo not drawn) | inactive: 7.12% |
| COCCN(C(=S)Nc1ccc(Cl)cc1OC)C1CCN(C(C)=O)CC1 | inactive: 8.07% |
| Cc1cc(C(=O)COC(=O)CNS(=O)(=O)c2ccc3ccccc3c2)c(C)n1-c1ccccc1 | inactive: 8.87% |
| CCOc1ccc2nc(SCC(=O)NCC3CCCO3)sc2c1 (stereo not drawn) | inactive: 12% |
| COc1cccc2c1OC1(CCN(C(C)C)CC1)N1N=C(c3cccnc3)CC21 (stereo not drawn) | inactive: 2.55% |
| COc1cc(OC)cc(C(=O)Nc2ccccc2S(=O)(=O)N2CCCC2OC(C)=O)c1 (stereo not drawn) | inactive: 22% |
| CCCN(CCC)Cc1c(C(=O)N/N=C/C(C)=C\c2ccco2)nnn1-c1nonc1N | inactive: -11% |
| S=c1[nH]nc(Nc2cccc(Cl)c2)s1 | inactive: 4.52% |
| CCC(CO)Nc1ncnc2onc(-c3ccc(F)cc3)c12 (stereo not drawn) | inactive: -6.04% |
| O=C1CC(c2ccccc2)CC(O)=C1C=NCCN1CCN(Cc2ccccc2)CC1 (stereo not drawn) | inactive: -16.6% |

| Compound | growth rescue (activation) |
| --- | --- |
| O=C1CCNc2c(Cl)cccc21 | inactive: -7.73% |
| c1ccc(COc2ccccc2CNC23CC4CC(CC(C4)C2)C3)cc1 | inactive: 19.2% |
| CC1(C(=O)NS(=O)(=O)c2ccc(Cl)s2)CCN1C(=O)c1ccc(C2CCCCC2)cc1 (stereo not drawn) | inactive: 10.2% |
| Nc1nnc(SCC(=O)Nc2cc(S(=O)(=O)N3CCOCC3)ccc2Cl)s1 | inactive: 7.77% |
| Cc1ccc2c(=O)c(CN3CCCCCC3)c(C)[nH]c2c1C | inactive: 7.82% |
| C=CCc1ccc(OCCOc2cccc3cccnc23)c(OC)c1 | inactive: 20.2% |
| CC1(C)C(=O)OC(c2cccn2-c2ccc([N+](=O)[O-])cc2)C(C)(C)C1=O (stereo not drawn) | inactive: 16.4% |
| Cc1cc(=O)oc2c1c(C)nn2-c1cccc(Cl)c1 | inactive: -7.11% |
| Cc1ccc(-c2nc(Cl)nc3ccccc23)cc1 | inactive: 27.1% |
| O=[N+]([O-])c1cccc(C(=S)N2CCCC2)c1 | inactive: -15.3% |
| CN(CC(=O)Nc1ccc(F)cc1)C(=O)Cn1cnc2ccc([N+](=O)[O-])cc2c1=O | inactive: -1.57% |
| O=C(O)c1ccccc1C(=O)N1CC=C(c2ccccc2)CC1 | inactive: -5.09% |
| O=C(NC1CCCCC1)c1ccc2c(c1)N(Cc1ccc(F)cc1)C(=O)c1ccccc1S2(=O)=O | inactive: 1.45% |
| O=C(CSc1nnnn1-c1ccc(F)cc1)c1ccc(O)c(O)c1 | inactive: -8.4% |
| COc1cccc(CNc2nc3cc(-c4ccc(OC)c(OC)c4)sc3c(=O)n2C)c1 | inactive: 3.78% |
| Cn1c(SCC(=O)Nc2ccc3c(c2)OCCO3)nnc1C1CC1 | inactive: 0.478% |
| COc1ccc(C(=O)NCC(=O)NCC(c2ccco2)N(C)C)cc1OC (stereo not drawn) | inactive: 1.55% |
| O=C1/C(=C/c2cccs2)SC(=S)N1N1CCOCC1 | inactive: 5.2% |
| COc1ccccc1N(CC(O)Cn1c(C)nc2ccccc21)S(=O)(=O)c1ccccc1 (stereo not drawn) | inactive: 12.9% |
| CCCCCCCCNC(CO)(CO)CO | inactive: 0.18% |
| CC1(C)C(=O)N(c2ccccc2Cl)C(=O)c2ccccc21 | inactive: 13.5% |
| N#Cc1c(SCC(=O)Nc2nncs2)sc2c(O)cc(=O)[nH]c12 | inactive: 4.74% |

| Compound | growth rescue (activation) |
| --- | --- |
| Cc1nc([N+](=O)[O-])c(Br)n1CC(=O)c1ccc(F)cc1 | inactive: 21.9% |
| C#CCOc1c(Cl)cc(C2C3=C(CCCC3=O)N(CC(=O)O)C3=C2C(=O)CCC3)cc1OC | inactive: -2.66% |
| CCOC(=O)C1=C(C)N=c2s/c(=C/c3ccco3)c(=O)n2C1c1cccc(OC)c1 (stereo not drawn) | inactive: -11.5% |
| O=C(/C=C/c1ccco1)Nc1ccc(C(=O)N2CCOCC2)cc1 | inactive: -0.129% |
| O=C(O)c1nn(Cc2ncc(-c3cccc(Cl)c3)o2)c(=O)c2ccccc12 | inactive: 12.5% |
| COc1ccc(OCC(=O)Nc2cc(C)c(Cl)cc2OC)c([N+](=O)[O-])c1 | inactive: 12.2% |
| Cc1ccc(CNC(=O)CSc2nc(C)cs2)cc1 | inactive: -7.86% |
| CC(=O)NCCC(=O)N1CCCC(CNC(=O)c2ccc(-c3ccccc3)cc2)C1 (stereo not drawn) | inactive: 3.55% |
| CC1=NN(c2nc(-c3ccc(C)cc3)cs2)C(=O)C1N=Nc1ccc(C(N)=O)cc1 (stereo not drawn) | inactive: 17.4% |
| Cc1ccc(S(=O)(=O)NCc2csc(C)n2)cc1 | inactive: 0.0582% |
| O=C(CNC(=O)c1ccccc1F)NCCc1ccc(Cl)cc1 | inactive: 21.6% |
| CCc1nc2nc(C)c(NS(=O)(=O)c3ccc(C4CCCCC4)cc3)c(=O)n2[nH]1 | inactive: -23.8% |
| COc1cc(OC)nc(NC(=S)NC(=O)c2ccccc2)n1 | inactive: -11.5% |
| C[n+]1ccccc1/C=C/c1ccccc1Cl | inactive: 0.522% |
| NC(CC(=O)O)c1ccc(F)cc1 (stereo not drawn) | inactive: 9.75% |
| O=S(=O)(c1cccs1)N1CCN(c2ccccc2)CC1 | inactive: 14.9% |
| O=C1Nc2cc(C(=O)N3CCc4ccccc4C3)ccc2S/C1=C\c1ccccc1 | inactive: 42.2% |
| CCCCCOc1ccc(C(O)C(CN2CCOCC2)c2ccccc2)cc1 (stereo not drawn) | inactive: -1.39% |
| C(=N\N(Cc1ccccc1)c1ccccc1)/c1ccco1 | inactive: 6.26% |
| COC(=O)C1=C(C)NC(C)=C(C(=O)OC)C1C(=O)OCC(=O)N1CCCCC1C (stereo not drawn) | inactive: -15.5% |
